Measurements from patent US11178870B2 (priority 2017, dated 2021).

Tests used:
[1] = system: Magnaporthe grisea; assay type: in vivo; conditions: class of control value, Table 7
[2] = system: Colletotrichum orbiculare; conditions: 250 ppm spray, 2.5 ml/pot; investigated 6 to 10 days after inoculation
[3] = system: Phytophthora infestans; assay type: in vivo; conditions: class of control value, Table 7

SMILES	Test A control value (blast on rice) [1]	Test H control value (anthracnose on cucumber) [2]	Test F control value (late blight on tomato) [3]
Cn1c(-c2c(F)cccc2F)c(-c2ccsc2Br)ccc1=O [Compound 456]	H (H shows the control value more than 50%)	H (H shows the control value more than 50%)	L (L shows the control value of 50% or less)
Cn1c(-c2c(F)cccc2F)c(-n2cc(F)cn2)cc(Cl)c1=O [Compound 461]	H (H shows the control value more than 50%)	H (H shows the control value more than 50%)	L (L shows the control value of 50% or less)
CNn1c(-c2c(F)cccc2F)c(-n2cc(F)cn2)cc(Br)c1=O [Compound 468]	H (H shows the control value more than 50%)	H (H shows the control value more than 50%)	L (L shows the control value of 50% or less)
CCn1c(-c2ccc(F)cc2F)c(-c2ccsc2C)ccc1=O [Compound 503]	H (H shows the control value more than 50%)	H (H shows the control value more than 50%)	L (L shows the control value of 50% or less)
Cc1ccsc1-c1cc(Cl)c(=O)n(C)c1-c1c(F)cccc1F [Compound 498]	H (H shows the control value more than 50%)	H (H shows the control value more than 50%)	L (L shows the control value of 50% or less)
Cc1cnn(-c2cc(Br)c(=O)n(C)c2-c2ccc(F)cc2Cl)c1Cl [Compound 515]	H (H shows the control value more than 50%)	H (H shows the control value more than 50%)	L (L shows the control value of 50% or less)
CCn1c(-c2ccc(F)cc2F)c(-n2cc(C)cn2)ccc1=O [compound 505, 6-(2,4-difluorophenyl)-1-ethyl-5-(4-methyl-1H-pyrazol-1-yl)pyridin-2(1H)-one]	H (H shows the control value more than 50%)	L (L shows the control value of 50% or less)	L (L shows the control value of 50% or less)
Cn1c(-c2c(F)cccc2F)c(-n2cc(F)cn2)cc(Br)c1=O [Compound 462]	H (H shows the control value more than 50%)	H (H shows the control value more than 50%)	L (L shows the control value of 50% or less)
